According to PubChem BioAssay (NCI):
A structure can be active in one record and inactive in another.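 Single-concentration screen, 48 h exposure, 96-well plates. Endpoint: percent growth. Below 10 = active.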 For part of its entries the source gives two or more results. Only these are listed. There may be further records. The values listed for one entry repeat one measurement in other runs, samples, wells, individuals or studies. What stands in brackets tells the records apart. Letters count within one entry. Marks such as [2022-09] give the month of the run.

Columns and labels:
Assay in all cases: NCI-60 one-dose screen, 48 h (100 = growth as untreated, 0 = no growth, -100 = all killed)
Details in all cases: 100 µM
[1] = test system: UACC-62 melanoma
[2] = test system: TK-10 renal
[3] = test system: MCF7 breast

Structure (SMILES)	growth [1]	growth [2]	growth [3]
Cc1ccc(OCC2OC(n3cnc4c(Cl)ncnc43)CC2Oc2ccc(C)cc2)cc1 (stereo not given)	active: -73.8%, -86.5% [sample A, 1996-04] and active: 2.39%, -100% [sample B, 1996-04]	inactive: 106% [sample A, 1996-04] and active: -66.5% [sample A, 1996-04] and inactive: 102% [sample B, 1996-04] and active: -97.6% [sample B, 1996-04]	active: -1.99%, -84.9% [sample A, 1996-04] and inactive: 13.8% [sample B, 1996-04] and active: -97.2% [sample B, 1996-04]
O=C1NC(N/N=C\C(O)C(O)C(O)CO)=N/C1=C/c1ccccc1 (stereo not given)	inactive: 87.2%, 26.1% [sample A, 1996-03] and inactive: 68.7% [sample B, 1996-03] and active: -100% [sample B, 1996-03]	inactive: 141%, 68.9% [sample A, 1996-03] and inactive: 124% [sample B, 1996-03] and active: -49.6% [sample B, 1996-03]	inactive: 80.6%, 28.9% [sample A, 1996-03] and inactive: 58.6% [sample B, 1996-03] and active: -44.6% [sample B, 1996-03]
O=C1NC(N/N=C\C(O)C(O)C(O)CO)=N/C1=C/c1ccc(Cl)cc1 (stereo not given)	–	–	inactive: 12.1% [sample A, 1996-03] and active: -63.1% [sample A, 1996-03] and inactive: 32.6% [sample B, 1996-03] and active: -100% [sample B, 1996-03]
O=C1NC(N/N=C\C(O)C(O)C(O)C(O)CO)=N/C1=C/c1ccc(Cl)cc1 (stereo not given)	inactive: 67.7% [sample A, 1996-03] and active: 8.24% [sample A, 1996-03] and inactive: 83.2% [sample B, 1996-03] and active: -84.8% [sample B, 1996-03]	inactive: 118%, 47.2% [sample A, 1996-03] and inactive: 120% [sample B, 1996-03] and active: -42.4% [sample B, 1996-03]	inactive: 62.6%, 46.6% [sample A, 1996-03] and inactive: 68.9% [sample B, 1996-03] and active: 5.52% [sample B, 1996-03]
